Experimental data as given in patent publication US20180021277A1, “ANTI-VIRULENCE COMPOSITIONS AND METHODS” (priority 2012, published 2018).

Tests used:
MRSA strain USA300 [1] = experiment: microbe, parasite or virus in culture; type: cell-based, Staphylococcus aureus; details: for activity at 1 µg/mL / activity at 10 µg/mL: read-out: Growth
MRSA strain USA300 [2] = details: for inhibition of rabbit blood hemolysis compared to diflunisal: 1 μg/mL
MRSA strain USA300 [3] = experiment: microbe, parasite or virus in culture; details: Staphylococcus aureus, MRSA|USA300, Erythrocyte, in Oryctolagus cuniculus, DMSO control = 100; for hemolysis at 1 µg/mL: 1 μg/mL compound; for hemolysis at 10 µg/mL: 10 μg/mL compound
MRSA strain USA300 [4] = experiment: Survival of insect larvae injected with MRSA; type: in vivo, Galleria Mellonella; details: F12 20 mg/kg every 6 hours; 12 h without
Protocol: FIG. 6 illustrates MRSA Survival curves of insect larvae (Galleria Mellonella) in the presence compound F12 and cephalothin.
Cephalothin is a cephalosporin β-lactam antibiotic to which MRSA is resistant, as shown in the solid black curve. Administration of compound F12 at 20 mg/kg increased the survival from 12 to 42 h (broken line). Combination of F12 (20 mg/kg) with cephalothin (30 mg/kg) further increased survival to 84 h (solid broken line).

MRSA strain USA300 [5] = experiment: RT-qPCR of virulence gene transcription in MRSA
[6] = 10 μg/mL compound, DMSO control = 100

Compound | activity at 1 µg/mL (MRSA strain USA300 [1]; Staphylococcus aureus) [%] | activity at 10 µg/mL (MRSA strain USA300 [1]; Staphylococcus aureus) [%] | inhibition of rabbit blood hemolysis compared to diflunisal (MRSA strain USA300 [2]) | hemolysis at 1 µg/mL (MRSA strain USA300 [3]) [%] | hemolysis at 10 µg/mL (MRSA strain USA300 [3]) [%] | inhibition at 1 µg/mL (MRSA strain USA300 [1]; Staphylococcus aureus, read-out: inhibition of bacterial growth) [%] | survival of larvae (MRSA strain USA300 [4]) [h] | inhibition of hemolysis of rabbit erythrocytes (MRSA strain USA300 [2]; 1 μg/ml, listed as F12) [%] | Growth (MRSA strain USA300 [1]; [6]) [%] | Hemolysis (MRSA strain USA300 [2]; [6]) [%] | expression of virulence genes (MRSA strain USA300 [5]; 10 μg/mL F19) | expression of RNAIII (MRSA strain USA300 [5]; 50 μg/ml F19) | expression of hla (MRSA strain USA300 [5]; 50 μg/ml F19) | expression of psm-α (MRSA strain USA300 [5]; 50 μg/ml F19) | expression of surface protein A (spa) (MRSA strain USA300 [5]; 50 μg/ml F19)
CCCc1cc(C(=O)COc2ccccc2F)c(O)cc1O [4e-5] | 101 | 63.9 | greater inhibition of rabbit blood hemolysis | 36.4 ± 1.9 | 0.4 |  |  |  |  |  |  |  |  |  | 
CCCc1cc(C(=O)COc2ccc(F)cc2)c(O)cc1O [4e-6] | 101 | 78.3 | greater inhibition of rabbit blood hemolysis | 34.2 ± 3.2 | 1.1 ± 0.1 |  |  |  |  |  |  |  |  |  | 
CCCc1cc(C(=O)COc2ccccc2C)c(O)cc1O [4e-9] | 100 | 2.2 | greater inhibition of rabbit blood hemolysis | 20.3 ± 3 | -0.4 |  |  |  |  |  |  |  |  |  | 
CCCc1cc(C(=O)COc2ccc(F)cc2F)c(O)cc1O [4e-12] | 100 | 54.2 | greater inhibition of rabbit blood hemolysis | 14.4 ± 0.4 | 1.1 ± 0.1 |  |  |  |  |  |  |  |  |  | 
CCCc1cc(C(=O)COc2ccc(F)c(F)c2)c(O)cc1O [4e-14] | 107 | 64.9 | greater inhibition of rabbit blood hemolysis | 9.6 ± 2.2 | -3 ± 0.1 |  |  |  |  |  |  |  |  |  | 
CCCc1cc(C(=O)COc2cc(F)cc(F)c2)c(O)cc1O [4e-15] | 103 | 80 | greater inhibition of rabbit blood hemolysis | 11.9 ± 0.5 | -1.8 ± 0.1 |  |  |  |  |  |  |  |  |  | 
CCCc1cc(C(=O)COc2ccc(C(C)(C)C)cc2)c(O)cc1O [4e-20] | 89.1 | 2.6 | greater inhibition of rabbit blood hemolysis | 7.1 ± 0.1 | -1.6 ± 0.1 |  |  |  |  |  |  |  |  |  | 
CCCCCCc1cc(C(=O)COc2ccc(F)cc2F)c(O)cc1O [4f-12] | 73.3 | 15.4 | greater inhibition of rabbit blood hemolysis | 1.9 ± 0.1 | -2.5 ± 0.1 | 26.7 | 42 | 98 |  |  |  |  |  |  | 
CCCCCCc1cc(C(=O)COc2ccc(C(C)C)cc2)c(O)cc1O [4f-19] |  |  |  |  |  |  |  |  | 92.7 | 62.0 ± 14.5 | more moderate decrease | only moderately reduced | reduced | reduced | only moderately reduced
